The values below come from article PMC6919601, “Identification of Plasmodium dipeptidyl aminopeptidase allosteric inhibitors by high throughput screening” (PLoS ONE, 2019).

The campaign covered roughly 110,000 compounds. About 230 (0.21%) showed an effect of 50% or more. This is one part of the list.
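Further: 30 min substrate incubation versus DMSO and 10 µM JCP410 controls.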

Sequence of DPAP1 (Q8IIJ9 whole entry, looked up): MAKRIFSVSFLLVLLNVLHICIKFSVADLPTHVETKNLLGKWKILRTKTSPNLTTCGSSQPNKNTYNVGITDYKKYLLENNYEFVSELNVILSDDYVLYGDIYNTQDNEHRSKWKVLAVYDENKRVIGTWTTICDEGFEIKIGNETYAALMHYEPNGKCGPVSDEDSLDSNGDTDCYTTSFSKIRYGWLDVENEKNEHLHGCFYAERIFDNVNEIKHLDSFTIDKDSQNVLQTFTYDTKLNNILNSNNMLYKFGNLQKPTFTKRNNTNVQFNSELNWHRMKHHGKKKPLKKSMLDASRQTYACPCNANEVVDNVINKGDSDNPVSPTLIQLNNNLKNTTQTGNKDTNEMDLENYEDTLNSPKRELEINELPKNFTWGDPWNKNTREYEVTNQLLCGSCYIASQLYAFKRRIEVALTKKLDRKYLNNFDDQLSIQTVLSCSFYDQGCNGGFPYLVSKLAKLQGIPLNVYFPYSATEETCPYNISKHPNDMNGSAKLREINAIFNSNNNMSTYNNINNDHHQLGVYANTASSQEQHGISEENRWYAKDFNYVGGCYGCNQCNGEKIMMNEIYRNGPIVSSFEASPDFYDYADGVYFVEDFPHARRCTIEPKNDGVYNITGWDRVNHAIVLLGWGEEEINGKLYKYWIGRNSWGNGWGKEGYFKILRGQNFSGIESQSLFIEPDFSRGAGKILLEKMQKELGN

The assay addresses DPAP1 (Plasmodium falciparum, UniProt Q8IIJ9). Put plainly: primary screen, percent inhibition; read by cleavage of a fluorogenic dipeptide substrate; higher = more effect of the substance. Details: species or system P. falciparum D10 trophozoite lysates; single well.
Regarding `COc1ccc2oc(-c3ccccc3)c(C(=O)N(C)C)c2c1`, the “% Inhibition @ 10 uM” value is given as 1.37%.

With `O=C(/C=C/c1ccc(-c2ccc(Cl)cc2)o1)N1CCCCC1`, the “% Inhibition @ 10 uM” value came to 5.35%. With `CC(=O)Nc1ccc(-c2cnc(-c3ccc(NC(C)=O)cc3)nc2)cc1` the figure was 1.63%; with `CCCCn1c(C)c2cc(OC)c(OC)cc2cc1=O`, -0.13%. To `O=C(O)C1CCCN1Cc1c[nH]c2ccccc12` (centres unmarked) belongs 0.472%. With `Cc1ccccc1/N=c1\scc(-c2ccccc2)n1CCCN1CCOCC1` the figure was 6.1%; with `COc1ccc(-c2cc(=O)c3ccccc3o2)cc1OC`, 0.635%.

On to `Cc1nn(C)cc1CNC(=O)c1cccc(F)c1`, for which the “% Inhibition @ 10 uM” value is 2.8%.

`O=S(=O)(NCc1ccccc1)c1ccc2[nH]c(O)nc2c1`: the “% Inhibition @ 10 uM” value was 0.0289%.

For `CCOC(=O)c1nonc1NC(C)=O`, the “% Inhibition @ 10 uM” value was 3.39%. To `COc1ccccc1-c1cc(N)[nH]n1` belongs -3.06%; to `Cc1ccc(NC(=O)C(C)Sc2nc(N)cc(N)n2)c(C)c1` (centres unmarked), -5.13%; to `O=C(Nc1nnc(Cc2ccccc2)s1)c1ccco1`, 11.8%. With `O=C(c1cc(-c2ccc(Cl)c(Cl)c2)on1)N1CCOCC1` the figure was -7.15%; with `O=C(NC1CCCCCCC1)c1ccc2c(c1)OCO2`, -4.38%; with `COc1cccc(NC(=O)c2ccc3c(c2)OCO3)c1`, 4.32%.

Consider `O=C1NC(=S)S/C1=C/c1ccc(O)cc1`, for which the “% Inhibition @ 10 uM” value is on record as -0.807%. As to `Cc1ccc(S(=O)(=O)c2nc(S(C)(=O)=O)sc2N2CC(C)OC(C)C2)cc1` (centres unmarked), the “% Inhibition @ 10 uM” value was found to be 1.15%. With `Cc1cccc(Oc2cc(-n3ncc4c3CCCC4=O)ncn2)c1`, the “% Inhibition @ 10 uM” value is on record as -3.94%.

Turning to `CC(=O)NS(=O)(=O)c1ccc(NC(=O)CCc2ccccc2)cc1`, the “% Inhibition @ 10 uM” value is given as -3.47%. To `O=C(COc1ccc(Cl)cc1Cl)N1CCN(c2ccc([N+](=O)[O-])cc2)CC1` belongs 7.55%; to `COc1cc2c(cc1OC)C(COc1ccc(F)cc1)N(C(C)=O)CC2` (centres unmarked), 1.42%. As to `O=C(NCc1nnc(SCC(=O)N2CCOCC2)o1)c1cccs1`, the “% Inhibition @ 10 uM” value is given as 0.163%. To `C=Cc1ccccc1CN1CCOCC1` belongs -3.66%; to `CCCOc1ccc(NC(=O)c2ccc(OC)cc2)cc1`, -1.86%; to `Cc1ccc([S+](O)Nc2cccc(Cl)c2)cc1` (centres unmarked), 3.65%. `CCOc1ccc(C2(C)C(=O)N(CN3CCOCC3)C(=O)N2CN2CCOCC2)cc1` (centres unmarked): the “% Inhibition @ 10 uM” value was -2.15%.

Consider `Cc1ccc(-c2cn3nc(N4CCC(C(=O)NCc5ccccc5C)CC4)sc3n2)cc1`, for which the “% Inhibition @ 10 uM” value came to 2.72%. In the case of `CCCCSc1nc(O)c(CC)c(=O)n1-c1ccccc1`, the “% Inhibition @ 10 uM” value is listed as -1.22%.

On to `O=C1NC(=O)/C(=C\c2ccc(O)c(Cl)c2)N1`, for which the “% Inhibition @ 10 uM” value was 1.31%.

In the case of `COc1ccc(S(=O)(=O)N2CCN(C)CC2)c(C)c1`, the “% Inhibition @ 10 uM” value is given as 0.484%. To `CCOc1ccc2nc(NC(=O)C3(S(=O)(=O)c4ccc(C)cc4)CC3)sc2c1` belongs -2.56%; to `CC1CCCC(NS(=O)(=O)c2cc(Br)cnc2N)C1C` (centres unmarked), 2.32%. As for `Cc1nc(-c2ccc(NS(=O)(=O)c3ccc4c5c(cccc35)CC4)cc2)cs1`, the “% Inhibition @ 10 uM” value was -2.03%. To `CCOC(=O)c1cnn(-c2ccccc2)c1C` belongs -3.06%; to `CC(=O)c1ccc(N2CCN(Cc3cccc4ccccc34)CC2)cc1`, 4.22%; to `C=CCn1c(SCC(=O)N2CCCCC2)nc(=O)c(CC)c1O`, -1.41%.

Take `Cc1cc(Cl)nc(Cl)c1C(=O)NC(=O)NCCC(C)C`: the “% Inhibition @ 10 uM” value is listed as 0.919%. With `Cc1ccc(CN2C3CCCC2CC(NC(=O)C2CC2)C3)cc1` (centres unmarked), the “% Inhibition @ 10 uM” value was -1.07%. To `C=CC1CN2CCC1CC2C12Nc3ccccc3C1(O)CCO2` (centres unmarked) belongs -2.17%. With `O=C(Cc1ccccc1)NCc1ccncc1` the figure was 1.63%; with `CCN(CC)C(=O)C1CCCN(Cc2cc(C)ccc2C)C1` (centres unmarked), 0.605%; with `Cc1onc(-c2ccccc2)c1C(=O)Nc1ccc(S(=O)(=O)N2CCC(C)CC2)cc1`, -1.63%.

Regarding `Cc1cccc2c(O)c(NC(=O)NCc3ccc(F)cc3)cnc12`, the “% Inhibition @ 10 uM” value was -1.31%. With `CC(=O)Nc1nc(C23CC4CC(CC(C4)C2)C3)cs1` the figure was -0.712%; with `O=C(O)c1ccc(OCC(O)Cn2c(Cc3ccccc3)nc3ccccc32)cc1` (centres unmarked), -3.01%. With `COc1ccc(OC)c(/C=C2\SC(Nc3ccc(Br)cc3)=NC2=O)c1` the figure was 0.24%. To `Cc1c(C(=O)Nc2ccc(Br)cc2)cccc1[N+](=O)[O-]` belongs -0.856%; to `O=C(Nc1ccncc1)C1(c2ccccc2)CCCC1`, -5.9%. Turning to `COc1ccc(-c2cc(-c3ccccc3)nc3sc(C#N)c(N)c23)cc1`, the “% Inhibition @ 10 uM” value worked out at 2.03%. With `CCc1cc(O)n2nc(C)c(-c3ccccc3OC)c2n1`, the “% Inhibition @ 10 uM” value is listed as 3.25%. In the case of `COc1ccc(Cl)cc1-c1nc(/C=N/c2cc(C)ccn2)c(O)o1`, the “% Inhibition @ 10 uM” value worked out at 8.98%. For `CCOC(=O)c1c(NC(=O)CN2CCCCCC2)sc2c1CCCC2=O`, the “% Inhibition @ 10 uM” value was -4.21%.
